In all, about 350,000 compounds went through this assay and about 260 (0.074%) were called active. This list was built around the results that the source calls inconclusive (neither active nor inactive); the mix of calls is not that of the screen. Calls come from the whole dose curve; as a rule, active = well fitted inhibition curve with a large enough effect; inconclusive = small, poorly fitted or top-dose-only effect; inactive = no such curve, though single readings can be large or run the other way. Potencies of inconclusive entries are doubtful fits and often do not repeat.
target: Ferritin light chain (Equus caballus) (UniProt P02791); assay: qHTS Assay for Identification of Novel General Anesthetics; details: apoferritin/1-aminoanthracene competitive binding, fluorescence; activity change, negative = displacement: at 77.5 µM (top of the series); note: nearly all actives have a fitted effect of over 20% in size
UniProt P02791, sequence (P02791 whole entry, looked up): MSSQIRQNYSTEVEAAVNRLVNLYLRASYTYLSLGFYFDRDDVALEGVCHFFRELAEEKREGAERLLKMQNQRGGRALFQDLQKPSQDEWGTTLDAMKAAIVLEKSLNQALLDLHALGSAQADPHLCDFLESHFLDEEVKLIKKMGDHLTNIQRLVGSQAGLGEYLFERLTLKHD
Summary of the method: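 In PBS, apoferritin at 10 uM is loaded with 1-AMA from a 50% saturated solution. After 10 min of compound exposure at ambient temperature, reduced 535 nm fluorescence indicates probe displacement.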
% is set by controls: 0 for no effect and ±100 for the full control effect; potency is the fitted concentration of half-maximal effect; tags give direction and shape of the fitted curve.

Potency, inconclusive:
COc1ccc2c(c1)C(=O)N(c1ccccc1C)C(=O)C2(C)C 28.2 µM [inhibitor, partial curve]
CCCCN(C)C(=S)Nc1ccsc1C(=O)OC 44.7 µM [inhibitor, single point]
Cc1nc2cc(N3CCCCC3)c(NC(=O)c3cccnc3)cc2c(=O)n1Cc1ccccc1 25.1 µM [inhibitor, partial curve]
CCCOC(=O)/C(=C\C=C\c1ccccc1)NC(=O)c1ccccc1 31.6 µM [inhibitor, partial curve]
COc1ccc2c(c1)NC(c1ccc(OCC(C)C)cc1)=NC(c1ccncc1)=N2 11.2 µM [inhibitor, single point]
CCOC(=O)c1c(NC(=O)CSc2nnnn2-c2ccccc2)sc2c1CC(C)(C)NC2(C)C 31.6 µM [inhibitor, single point]
O=[N+]([O-])c1ccc(NCCNS(=O)(=O)c2ccccc2)c(C(F)(F)F)c1 35.5 µM [inhibitor, partial curve]
O=C(CNC(=O)c1cccs1)N/N=C/c1cccc(Cl)c1 50.1 µM [inhibitor, single point]
O=C(CNC(=O)c1ccccc1Cl)N/N=C/C=C/c1ccccc1 15.8 µM [inhibitor, partial curve]
Cc1ccc(C(=O)CSc2nccn2-c2ccccc2)cc1 25.1 µM [inhibitor, partial curve]
COc1ccc(OC)c(CCNC(=O)CCCC(=O)n2ncc3cc(C)ccc32)c1 22.4 µM [inhibitor, partial curve]
CC(C)(C)c1ccc(-c2noc(CCC(N)=O)n2)cc1 44.7 µM [inhibitor, single point]
COC(=O)Cc1[nH]nc2c1C1(C(=O)N(Cc3ccccc3)c3ccccc31)C(C#N)=C(N)O2 (stereo not drawn) 31.6 µM [inhibitor, single point]
O=c1cc2c(nn1Cc1cccc([N+](=O)[O-])c1)-c1ccccc1CC2 35.5 µM [inhibitor, partial curve]
Cc1ccccc1C(=O)N1CCc2ccccc2C1 22.4 µM [inhibitor, partial curve]
CC(C)(C)C(=O)CSc1ncnc2c1cnn2Cc1ccccc1 50.1 µM [inhibitor, single point]
CCOC(=O)/C(=N\Nc1cccc(C(F)(F)F)c1)N(CCOC)CCOC 28.2 µM [inhibitor, partial curve]
CCOc1cc(C(=O)O/N=C(\N)c2ccccn2)cc(OCC)c1OCC 25.1 µM [inhibitor, partial curve]
CC1=C/C(=N\Nc2ccccc2[N+](=O)[O-])CC(C)(C)C1 50.1 µM [inhibitor, partial curve]
COc1ccc(C(=O)c2ccc(Cl)cc2Cl)cc1 39.8 µM [inhibitor, partial curve]
CC(C)Cn1c(N)c(C(=O)COC(=O)CC23CC4CC(CC(C4)C2)C3)c(=O)n(C)c1=O 12.6 µM [inhibitor, full curve]
CCn1c(CSc2nc3ccccc3s2)nnc1SCC(N)=O 31.6 µM [inhibitor, single point]
CN(C)c1nccc(Nc2ccccc2)c1C#N 20 µM [inhibitor, partial curve]
Cc1ccc(OC(=O)c2snnc2C)cc1C 15.8 µM [inhibitor, partial curve]
O=C(NNS(=O)(=O)c1ccc(Cl)cc1)NC1CCCCC1 56.2 µM [inhibitor, single point]
Cn1c(N)c(C(=O)COC(=O)c2cc(C3CC3)nc3ccccc23)c(=O)n(Cc2ccccc2)c1=O 17.8 µM [inhibitor, partial curve]
Nc1nc(COc2ccc3ccccc3c2)cs1 11.2 µM [inhibitor, partial curve]
Cc1cc(SCC(=O)N/N=C/c2ccc(O)c(O)c2)nc2ccccc12 44.7 µM [inhibitor, single point]
CNc1cc(N2CCCCCC2)ccc1[N+](=O)[O-] 20 µM [inhibitor, partial curve]
Clc1ccc(NCc2cccnc2)c(Cl)c1 35.5 µM [inhibitor, single point]
Cc1cc(=O)[nH]c(SCc2cccc(F)c2)n1 50.1 µM [inhibitor, single point]
O=C(CNc1cccc2ccccc12)N/N=C/C(Br)=C/c1ccccc1 12.6 µM [inhibitor, partial curve]
S=c1sc2c(Cl)ncnc2n1-c1ccccc1 35.5 µM [inhibitor, partial curve]
Cc1ccccc1Oc1ncnc2sccc12 31.6 µM [inhibitor, partial curve]
CC(C)c1cc(C(=O)NCc2ccc(F)cc2)no1 15.8 µM [inhibitor, partial curve]
CCOC(=S)NC(=O)c1sc2ccccc2c1Cl 31.6 µM [inhibitor, partial curve]
CCCCCc1ccc(-c2ccc(=O)[nH]n2)cc1 28.2 µM [inhibitor, partial curve]
COc1ccc(C)cc1NC(=O)C1CCC(CNS(=O)(=O)c2ccc3c(c2)CCCC(=O)N3)CC1 (stereo not drawn) 50.1 µM [inhibitor, single point]
COc1ccccc1Cn1cccc1C=O 31.6 µM [inhibitor, partial curve]
CC(C)c1ccc(-c2noc(C3CCCN(S(C)(=O)=O)C3)n2)cc1 (stereo not drawn) 28.2 µM [inhibitor, partial curve]
COc1ccc(NC(=S)NC(=O)/C=C/c2ccco2)cc1 14.1 µM [inhibitor, partial curve]
O=C1COc2ccc(C(=O)CSc3nnc(Cc4cccs4)n3-c3ccc(Cl)cc3)cc2N1 14.1 µM [inhibitor, partial curve]
COc1ccc(C(=O)/C(=C\c2ccco2)N2C=CC=CC2=C(C#N)C#N)cc1 39.8 µM [inhibitor, partial curve]
COc1ccc(-c2cn3c(n2)sc2cc(C(=O)NCC(C)c4ccccc4)ccc23)cc1 (stereo not drawn) 14.1 µM [inhibitor, partial curve, poor fit]
CC1CCCN(C(=O)c2ccc(COc3ccccc3Br)cc2)C1 (stereo not drawn) 6.31 µM [inhibitor, partial curve]
CC1(C)OCC(CSC2=C(SCC3COC(C)(C)O3)C(=O)c3ncccc3C2=O)O1 (stereo not drawn) 28.2 µM [inhibitor, single point]
Cc1ccc(C)c(SCC(=O)NNC(=O)c2csc(N3CCOCC3)n2)c1 25.1 µM [inhibitor, partial curve]
Cc1ccc(C(=O)c2cn(Cc3cc(C)ccc3C)c3nc(C)ccc3c2=O)cc1 14.1 µM [inhibitor, partial curve]
COc1ccc(Cc2nc(C(=O)Nc3ccc(Cl)cc3)cs2)cc1 11.2 µM [inhibitor, partial curve]
COc1ccccc1NC(=O)c1cccc2c(Br)cccc12 28.2 µM [inhibitor, partial curve]
CCCc1nc2ccccc2c(C(=O)OCc2nnc(-c3cc(OC)c(OC)c(OC)c3)o2)c1CC 15.8 µM [inhibitor, partial curve]
Cc1nnn(C23CC4CC(CC(C4)C2)C3)n1 20 µM [inhibitor, partial curve]
Cc1cc(O)ccc1N=Cc1c(C(F)(F)F)[nH][nH]c1=O 20 µM [inhibitor, partial curve]

Potency, active:
O=C(Nc1nccs1)c1ccc(S(=O)(=O)NCC2CCCCC2)cc1 14.1 µM

Activity change, negative = displacement, inactive:
S=C(Nc1ccc2c(c1)OCO2)N1CCN(Cc2ccco2)CC1 3.73%
COc1ccc(NC(=O)CSc2ccc3nnc(CCNC(=O)c4ccccc4)n3n2)cc1 -7.94%
COc1ccccc1-c1nnc2sc(COc3ccc(F)cc3)nn12 -23.6%
CCc1ccc(Nc2cc(C)nc3nc(Cc4ccc(Cl)cc4)nn23)cc1 113%
Cc1ccc([N+](=O)[O-])cc1NC(=O)CCCOc1ccccc1 -18.4%
O=C(NCc1cccnc1)c1ccc([N+](=O)[O-])cc1 -8.38%
COc1cc2c(cc1OC)C(c1ccc(Cl)cc1)N(c1ccc(C)c(F)c1)C(=O)C2 (stereo not drawn) -3.03%
O=C(O)c1cc(-c2cccc3ccccc23)nc2ccccc12 6.18%
O=C(COc1ccc(Cl)cc1)Nc1c(-c2cccs2)nc2ccccn12 6.15%
COc1ccc(/C=N/NC(=O)c2[nH]c3ccc(Cl)cc3c2-c2ccccc2)c(C(=O)O)c1OC 4.43%
CCCC(=O)Nc1nnc(SCc2cc(=O)n3ccccc3n2)s1 -17.4%
Cc1ccc(C)c(N2CCN(C(=O)c3ccc4nsnc4c3)CC2)c1 -4.15%
CCOC(=O)CC(=O)CSc1nc2c(sc(=S)n2-c2ccc(C)c(C)c2)c(=O)[nH]1 1.72%
Cc1ccc(SCCCn2cncn2)cc1 3.71%

Source: PubChem BioAssay AID485281 (National Center for Advancing Translational Sciences (NCATS), 2010)
